Test results: the supplement of paper PMC12645437, “Orthogonal IMiD-Degron Pairs Induce Selective Protein Degradation in Cells” (ACS Chemical Biology, 2025)
The list shows a part of the results.

These sequences were tested against no compound (DMSO) (assay: log2 fold change of degron read counts, EGFP-low vs EGFP+ sorted cells; higher = lower degron-EGFP level without compound (poor expression or instability)). Conditions: compound: DMSO control; 18 h.
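Also: jurkat cells carrying a lentiviral library of mutant zinc finger degrons fused to EGFP plus mCherry, mCherry+ cells FACS sorted, degron abundance counted by next-generation sequencing.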

| Sequence | log2 fold change of degron read counts |
| --- | --- |
| LGCNQCGFLCTQKGNLLRHIKL | 1.47 |
| FFCDQCGAWFTQKGNLLRHIKL | 0.465 |
| FRCPICGHQFTQKGNLLRHIKL | 0.31 |
| FECPQCGAEFTQKGNLLRHIKL | -2.49 |
| FKCNQCGHAFTQKGNLLRHIKL | -0.595 |
| FLCDVCGAIFTQKGNLLRHIKL | -0.371 |
| FWCEQCGAFFTQKGNLLRHIKL | 0.599 |
| FDCEQCGAEFTQKGNLLRHIKL | -2.75 |
| FMCEICGALFTQKGNLLRHIKL | -0.706 |
| FLCSVCGHLFTQKGNLLRHIKL | 0.556 |
| FCCDQCGAPFTQKGNLLRHIKL | -1.88 |
| LGCEICGFYCTQKGNLLRHIKL | 1.39 |
| LECNQCGFHCTQKGNLLRHIKL | -0.183 |
| FWCNQCGADFTQKGNLLRHIKL | 0.167 |
| FCCNQCGADFTQKGNLLRHIKL | -1.19 |
| FICPICGHLFTQKGNLLRHIKL | 0.128 |
| FHCSVCGHRFTQKGNLLRHIKL | 0.0615 |
| FYCEICGANFTQKGNLLRHIKL | -0.658 |
| FQCDICGAVFTQKGNLLRHIKL | -1.94 |
| FSCDICGAWFTQKGNLLRHIKL | -0.79 |
| FFCEICGAQFTQKGNLLRHIKL | -0.764 |
| FFCPQCGAMFTQKGNLLRHIKL | 0.199 |
| FFCPQCGAYFTQKGNLLRHIKL | 0.511 |
| FYCPQCGAFFTQKGNLLRHIKL | 1.21 |
| FMCDVCGAEFTQKGNLLRHIKL | -2.19 |

| Sequence | log2 fold change of degron read counts |
| --- | --- |
| LFCNQCGFCCTQKGNLLRHIKL | 1.47 |
| FACPQCGARFTQKGNLLRHIKL | -0.407 |
| FLCNQCGRDFTQKGNLLRHIKL | -0.188 |
| FNCNICGATFTQKGNLLRHIKL | -0.706 |
| FLCEICGAGFTQKGNLLRHIKL | -1.53 |
| FMCDVCGATFTQKGNLLRHIKL | -1.67 |
| FACNQCGAIFTQKGNLLRHIKL | -0.561 |
| FACDVCGANFTQKGNLLRHIKL | -1.67 |
| FVCEVCGAFFTQKGNLLRHIKL | -0.69 |
| FTCPICGACFTQKGNLLRHIKL | -0.299 |
| FTCNICGATFTQKGNLLRHIKL | -0.53 |
| FACDQCGAYFTQKGNLLRHIKL | -0.686 |
| FRCNVCGAKFTQKGNLLRHIKL | -0.776 |
| FQCEVCGAYFTQKGNLLRHIKL | -0.532 |
| FICSVCGHDFTQKGNLLRHIKL | -2.59 |
| FACNQCGRLFTQKGNLLRHIKL | 0.0249 |
| FMCNQCGHDFTQKGNLLRHIKL | -0.736 |
| FNCNVCGAPFTQKGNLLRHIKL | 0.0311 |
| FICPICGRYFTQKGNLLRHIKL | 0.695 |
| FYCDVCGAMFTQKGNLLRHIKL | -0.811 |
| FLCSVCGHTFTQKGNLLRHIKL | -1.61 |
| FHCNQCGHVFTQKGNLLRHIKL | -0.415 |
| FKCSVCGHDFTQKGNLLRHIKL | -1.4 |
| FRCEICGHMFTQKGNLLRHIKL | -0.566 |
| FWCNQCGAAFTQKGNLLRHIKL | 0.551 |
